“And” between values parts separate entries of the source, which are not always exact repeats. Identical values can stand only once. The list shows a part of the results. These are further read-outs of the screen, such as a control signal, another cell line or another target. No call is given for them.

Assay in all cases: Primary Screen for Target Class Profiling of Small Molecule Inhibitors of Methyltransferases
In assay [1] the target is Glycine N-methyltransferase (Homo sapiens) (UniProt Q14749). Conditions: purified enzyme, MTase-Glo SAH luminescence; measured here: GNMT inhibition; at 40 µM; stronger effect = lower value. The method in brief:
(§1)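 Each enzyme was assayed with SAM and its substrate. SAH formation detected by MTase-Glo luminescence; single-point 40 uM screen[…].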

For assay [2], the target named is Guanidinoacetate N-methyltransferase (Homo sapiens) (UniProt Q14353). Conditions: purified enzyme, MTase-Glo SAH luminescence; measured here: GAMT inhibition; at 40 µM; stronger effect = lower value. The essentials: as §1
Assay [3] deals with Histamine N-methyltransferase (Homo sapiens) (UniProt P50135). The conditions noted are these: purified enzyme, MTase-Glo SAH luminescence; measured here: HNMT inhibition; at 40 µM; stronger effect = lower value. The essentials:
as §1

For assay [4], the target named is Nicotinamide N-methyltransferase (Homo sapiens) (UniProt P40261). Conditions: purified enzyme, MTase-Glo SAH luminescence; measured here: NNMT inhibition; at 40 µM; stronger effect = lower value. The essentials:
as §1

Assay [5] addresses Phenylethanolamine N-methyltransferase (Homo sapiens) (UniProt P11086). Conditions: purified enzyme, MTase-Glo SAH luminescence; measured here: PNMT inhibition; at 40 µM; stronger effect = lower value. The method in brief: as §1
On the % scale 0 is the no-effect control and ±100 the full control effect.

Take `O=C(O)c1cnc(-c2ccccc2)nc1-c1ccncc1`: the activity change, negative = inhibition in assay [1] was -3.58%; in assay [2], -4.52%; in assay [3], -1.74%; in assay [4], -1.42%; in assay [5], -4.01%.
As for `CC(=O)Nc1c2n(c3ccc(F)cc13)CC(C)(C(=O)NC1CCCC1)N(Cc1ccc(F)cc1)C2=O` (stereo unspecified), the activity change, negative = inhibition was -5.38% in assay [1]; 4.79% in assay [2]; -1.34% in assay [3]; -3.03% in assay [4]; -4.06% in assay [5].
Regarding `Cc1cc(C(=O)N2CC(N(C(=O)NC(C)C)C3CCOCC3)C2)nn1C`, the activity change, negative = inhibition in assay [1] is -0.226%; in assay [2], 1.45%; in assay [3] it was 1.69%; in assay [4] it was -1.07%; in assay [5], -11.6%.
The matching figures for `O=C(COc1ccccc1)N1CCOC[C@H](Oc2ccccc2)C1`: -5.42%, -3.9%, -2.59%, -12.4% and 5.5%.
Take `CCCn1c(=O)c2ccc(C(=O)NC3CCCCC3)cc2n2c(SCC(=O)NC(C)(C)C)nnc12`: the activity change, negative = inhibition in assay [1] was found to be 8.49%; in assay [2], 3.54%; in assay [3], 6.43%; in assay [4], 5.56%; in assay [5] it was 9.39%.
With `Cc1ccc(CN2C(=O)c3ccc(-c4ccccc4)n3CC2(C)C(=O)NC2CCC(C)CC2)cc1` (stereo unspecified), the activity change, negative = inhibition in assay [1] was 6.29%; in assay [2], 0.888%; in assay [3], 5.46%; in assay [4], -1.23%; in assay [5], 1.93%.
As to `O=C(O[C@H]1[C@@H]2C=CO[C@@H](O[C@@H]3O[C@H](CO)[C@@H](O)[C@H](O)[C@H]3O)[C@@H]2[C@@]2(CO)O[C@@H]12)c1ccc(O)c(O)c1`, the activity change, negative = inhibition in assay [1] is 3.58%; in assay [2] it was 4.65%; in assay [3], 10.6%; in assay [4], -7.05%; in assay [5], 2.6%.
With `CCOC(=O)N1CCN(C(=O)Cn2sc3nc(C)cc(C)c3c2=O)CC1`, the figures for the activity change, negative = inhibition in assay [2], in assay [4] and in assay [5] were -7.16%, -8.9% and 3.51%, respectively.
With `CCC(C)(O)C(O)C(=O)OCc1ccc(O[C@@H]2O[C@H](CO)[C@@H](O)[C@H](O)[C@H]2O)cc1` (stereo partly specified), the activity change, negative = inhibition in assay [1] is 0%; in assay [2], 4.15%; in assay [3], 4.64%; in assay [4] it was -7.06%; in assay [5] it was 6.74%.
The corresponding values for `O=C1NC2(CCCN(Cc3ccccc3C(F)(F)F)C2)COc2ccccc21` (stereo unspecified) are -8.39%, -9.03%, -5.82%, -12.3% and -5.01%.
As for `c1ccc(-c2nc(-c3ccc(OC4CNC4)cc3)no2)cc1`, the activity change, negative = inhibition in assay [1] is -19.5%; in assay [2], -9.9%; in assay [3], -36.4%; in assay [4], -19%; in assay [5] it was -17%.
Regarding `Nc1cc(C(F)(F)F)c(-c2cc(N3CCOCC3)nc(N3CCOCC3)n2)cn1`, the activity change, negative = inhibition in assay [1] is -8.73%; in assay [2] it was -9.28%; in assay [3], -0.584%; in assay [4] it was -20.6%; in assay [5] it was -6.07%.
With `CC(=O)O[C@@H]1[C@H](O)[C@@H](O[C@@H]2O[C@@H](C)[C@H](O[C@@H]3OC[C@@H](O)[C@H](O[C@@H]4OC[C@@H](O)[C@H](O)[C@H]4O)[C@H]3O)[C@@H](O[C@@H]3O[C@H](CO)[C@@H](O)[C@H](O)[C@H]3O)[C@H]2O)[C@H](OC(=O)[C@]23CCC(C)(C)C[C@H]2C2=CCC4[C@@]5(C)CC[C@H](O[C@@H]6O[C@H](C(=O)O)[C@@H](O)[C@H](O[C@@H]7OC[C@@H](O)[C@H](O)[C@H]7O)[C@H]6O[C@@H]6O[C@H](CO)[C@H](O)[C@H](O)[C@H]6O)[C@@](C)(C=O)C5CC[C@@]4(C)[C@]2(C)CC3)O[C@@H]1C` (stereo partly specified), the activity change, negative = inhibition in assay [1] came to 0%; in assay [2], 20%; in assay [3], 12.8%; in assay [4] it was 9.69%; in assay [5] it was 11.4%.
Regarding `CCOC(=O)c1cc2n(n1)CC(C)(C(=O)NC1CCCC1)N(c1ccc(C)c(Cl)c1)C2=O` (stereo unspecified), the activity change, negative = inhibition in assay [1] is -0.375%; in assay [2], 2.75%; in assay [3], 0.065%; in assay [4] it was -1.77%; in assay [5], -1.72%.
Take `COc1cccc(-c2cc(C(=O)N3CCC(Cn4cccn4)CC3)[nH]n2)c1`: the activity change, negative = inhibition is -12.7% in assay [1]; -8.97% in assay [2]; -5.87% in assay [3]; -24.8% in assay [4]; -22.3% in assay [5].
On to `COC(=O)c1cc2n(n1)CC(C)(C(=O)NC1CCCCC1)N(Cc1ccc(C)cc1)C2=O` (stereo unspecified), for which the activity change, negative = inhibition in assay [1] is -3.4%; in assay [2], 4.92%; in assay [3] it was 4.58%; in assay [4] it was -1.02%; in assay [5], 1.51%.
The corresponding values for `COCCCOc1ccnc(CS(=O)c2nc3ccccc3[nH]2)c1C` (stereo unspecified) are 2.55%, 5.57%, -5.76%, -11.9% and -1.9%.
Regarding `Cc1cc(Cl)ccc1N1C(=O)CSc2c(c3ccccc3n2C)C1C(=O)NCc1ccccc1` (stereo unspecified), the activity change, negative = inhibition in assay [1] was 12.6%; in assay [2], 0.414%; in assay [3], 6.54%; in assay [4], 4.47%; in assay [5], 7.24%.
Take `Cc1cccc(N2C(=O)N(Cc3ccc(C(C)(C)C)cc3)c3ccccc3S2(=O)=O)c1`: the activity change, negative = inhibition in assay [2] is -35.4%; in assay [4], -37.5%; in assay [5] it was -5.22%.
With `CC(C)Cn1c(=O)c2ccc(C(=O)NC(C)C)cc2n2c(SCC(=O)NC3CCCC3)nnc12`, the activity change, negative = inhibition was -3.45% in assay [1]; -9.62% in assay [2]; 3.77% in assay [3]; -6.3% in assay [4]; -3.52% in assay [5].
On to `Cc1c(C(=O)Nc2ccc(N3C[C@@H](C)O[C@@H](C)C3)nc2)cccc1-c1ccc(OC(F)(F)F)cc1`, for which the activity change, negative = inhibition in assay [1] was 7.21%; in assay [2], 0.116% and -7.9%; in assay [3], 8.57%; in assay [4] it was -11.8% and -26.2%; in assay [5], 3.36% and -5.54%.
As for `COc1ccc(-c2ccc(C(=O)NCc3cccc(Cl)c3)cc2)nn1`, the activity change, negative = inhibition in assay [1] is -8.82%; in assay [2], -9.91%; in assay [3] it was -7.23%; in assay [4] it was -18.8%; in assay [5], -29.5%.
Regarding `COc1cc(C(C)=O)ccc1O[C@@H]1O[C@H](CO[C@@H]2O[C@@H](C)[C@H](O)[C@@H](O)[C@H]2O)[C@@H](O)[C@H](O)[C@H]1O`, the activity change, negative = inhibition in assay [1] is 0%; in assay [2], 6.27%; in assay [3], 10.1%; in assay [4] it was -4.8%; in assay [5], 3.94%.
In the case of `Cc1ccc(Sc2cncc3sc(C(N)=O)cc23)cc1`, the activity change, negative = inhibition in assay [1] was -6.23%; in assay [2], 5.7%; in assay [3], 10.6%; in assay [4], -18.8%; in assay [5], 3.02%.
With `CCNC(=O)Nc1ccc(-c2nc3c(c(N4CCOC[C@@H]4C)n2)CCN(c2ncccn2)C3)cc1`, the activity change, negative = inhibition in assay [1] is -13.8%; in assay [2] it was 11%; in assay [3], 4.73%; in assay [4], -20.1%; in assay [5], -1.94%.
Take `COc1ccc(-c2nnc(-c3ccc(Cl)c(S(=O)(=O)N4CCCCC4)c3)o2)cc1OC`: the activity change, negative = inhibition in assay [1] was -0.663%; in assay [2], 0.414%; in assay [3] it was 0.951%; in assay [4] it was 1.31%; in assay [5] it was 0.827%.
The corresponding values for `COc1ccc2c(c1)c(NC(C)=O)c1n2CC(C)(C(=O)NC2CCCCCC2)N(C2CCCC2)C1=O` (stereo unspecified) are 5.03%, 0%, 8.49%, -1.08% and 1.59%.
`CNC1=C(c2ccc(F)cc2)C(=O)N(Cc2ccccc2)C1`: the activity change, negative = inhibition was -6.18% in assay [1]; -7.74% in assay [2]; -8.93% in assay [3]; -12.7% in assay [4]; -6.24% in assay [5].
The corresponding values for `CCNC(=O)[C@@H]1C[C@H](NC(=O)CCc2ccccc2)CN1Cc1cnc[nH]1` are -1.67%, -5.22%, 0.434%, 1.79% and -1.55%.
In the case of `CC[C@@]1(O)CCN(C(=O)c2cccc(CCC(C)(C)O)c2)C[C@H]1O`, the activity change, negative = inhibition was 1.64% in assay [1]; 0.148% in assay [2]; 1.76% in assay [3]; -0.79% in assay [4]; -12.5% in assay [5].
The matching figures for `CCn1ncnc1C(C)NC(=O)Cn1nc(-c2ccccc2)n(CC)c1=O` (stereo unspecified): -3.43%, -7.24%, -0.218%, -14.2% and -9.33%.
The corresponding values for `CC(C)NNC(=O)c1ccncc1` are 8.66%, 8.15%, 11.1%, -7.66% and -4.39%.
For `COc1ccc(C#Cc2ccc(C(=O)N3CCC[C@@H](CO)C3)cc2)cc1`, the activity change, negative = inhibition was -2.24% in assay [1]; -0.64% in assay [2]; 1.02% in assay [3]; -14.5% in assay [4]; -11% in assay [5].
Regarding `O=C(CCc1nnn2c1CN(C(=O)c1cccc3[nH]ccc13)CC2)N1CCCC1`, the activity change, negative = inhibition in assay [1] was -14.8%; in assay [2], -4.79%; in assay [3], -1.7%; in assay [4] it was -7.98%; in assay [5] it was -48.5%.
